# Results taken from publication PMC4336329 (PLoS ONE, 2015).
# Screen size: about 310,000 compounds; about 14,000 (4.5%) showed an effect of 50% or more. The effect is printed as a negative number. The list shows a part of the results.
# Molecular target: human ether-à-go-go-related gene (hERG) potassium channel (human, UniProt Q12809)
# Assay: primary screen, population patch clamp on CHO cells stably expressing hERG
# 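Note: peak tail current of the secondary pulse compared with the same well before compound.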
# Sequence of human ether-à-go-go-related gene (hERG) potassium channel (Q12809 whole entry, looked up): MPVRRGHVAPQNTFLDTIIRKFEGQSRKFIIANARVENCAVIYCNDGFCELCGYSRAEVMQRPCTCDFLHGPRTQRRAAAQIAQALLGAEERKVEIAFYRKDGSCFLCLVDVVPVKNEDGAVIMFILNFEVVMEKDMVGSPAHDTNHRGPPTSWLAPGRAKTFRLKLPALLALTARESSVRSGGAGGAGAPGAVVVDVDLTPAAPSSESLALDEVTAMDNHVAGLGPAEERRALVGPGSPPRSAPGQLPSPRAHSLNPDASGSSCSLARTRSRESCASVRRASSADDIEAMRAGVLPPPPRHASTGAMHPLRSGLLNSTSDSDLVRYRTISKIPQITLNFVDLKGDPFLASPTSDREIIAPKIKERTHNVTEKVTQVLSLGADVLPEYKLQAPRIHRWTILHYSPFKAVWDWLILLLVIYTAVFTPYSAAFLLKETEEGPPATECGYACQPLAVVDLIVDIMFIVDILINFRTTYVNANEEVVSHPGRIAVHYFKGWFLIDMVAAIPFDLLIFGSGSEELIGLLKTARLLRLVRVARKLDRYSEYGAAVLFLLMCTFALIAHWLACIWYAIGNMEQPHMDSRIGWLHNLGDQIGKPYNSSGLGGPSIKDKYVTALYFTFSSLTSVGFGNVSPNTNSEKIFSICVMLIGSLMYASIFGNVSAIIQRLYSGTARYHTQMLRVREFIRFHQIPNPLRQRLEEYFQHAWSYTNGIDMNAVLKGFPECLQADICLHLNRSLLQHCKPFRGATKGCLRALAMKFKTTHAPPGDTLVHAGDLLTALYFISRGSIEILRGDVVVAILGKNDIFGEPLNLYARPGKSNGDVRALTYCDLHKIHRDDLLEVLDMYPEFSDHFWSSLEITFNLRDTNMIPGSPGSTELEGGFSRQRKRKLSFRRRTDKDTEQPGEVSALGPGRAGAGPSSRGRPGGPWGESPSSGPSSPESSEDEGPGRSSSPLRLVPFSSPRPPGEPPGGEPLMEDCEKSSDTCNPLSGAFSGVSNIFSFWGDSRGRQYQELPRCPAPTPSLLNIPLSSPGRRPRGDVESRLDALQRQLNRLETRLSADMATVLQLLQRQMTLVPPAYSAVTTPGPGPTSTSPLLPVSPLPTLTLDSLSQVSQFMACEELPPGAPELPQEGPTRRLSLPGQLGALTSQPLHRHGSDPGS
row,SMILES,"hERG current change (%, negative = inhibition) at 10uM [%]"
1,O=C(c1ccc(-n2nc(C(F)(F)F)c3c2CCCC3)cc1)N1CCOCC1,-4.55
2,c1ccc(C2CN3CCC2CC3)cc1 (stereo not shown),-5.74
3,Cc1ccc(N(C(=O)c2csnn2)C(C(=O)NC2CCCCC2)c2ccncc2)cc1 (stereo not shown),-1.71
4,CCc1ccccc1NC(=O)c1cccc(NC(=O)/C=C/c2ccco2)c1,-8.22
5,COc1ccc(OCCSc2ccc(S(=O)(=O)N3CCCC3)cn2)cc1,-27.2
6,O=C(CCc1c[nH]c2ccccc12)OCc1ccc(Br)cc1,10.2
7,COc1ccc(N(CC(=O)Nc2ccc3c(c2)OCO3)S(=O)(=O)c2ccc(C)cc2)cc1OC,8.47
8,CC(C)(C)c1ccc(Cn2cnc(-c3ccc([N+](=O)[O-])cc3)c2)cc1,-5.95
9,CC1(C)CC(=O)C/C(=N\NC(=O)c2cccs2)C1,3.15
10,CC(=O)Nc1cccc(NC(=O)Cc2cccs2)c1,8.67
11,Cc1cccc(CCNC(=O)C2CCN(S(=O)(=O)c3cccc4nsnc34)CC2)c1,1.86
12,O=C(COC(=O)/C=C/c1cccs1)Nc1ccc2ccccc2c1,7.66
13,COc1ccc(S(=O)(=O)NCCCn2ccnc2)cc1C(C)(C)C,-24.2
14,Nc1ccc(O)cc1C(=O)OCC(=O)c1ccc(C2CCCCC2)cc1,8.51
15,O=C(O)c1ncn(Cc2ccc(Br)cc2)c1C(=O)O,21.6
16,CC1CCN(C(=O)CSc2nc3c(c(=O)n(C)c(=O)n3C)n2C)CC1,10.5
17,C#CCSc1cc(C(F)(F)F)nc(-c2ccccn2)n1,-62.9
18,Cc1ccccc1CC(=O)Nc1cc(C(C)(C)C)on1,2.73
19,Cc1onc(-c2c(F)cccc2Cl)c1C(=O)NCCN1CCNC1=O,10.4
20,COc1ccc(CC2C(=O)N(c3ccccc3)C(=O)N(c3ccccc3)C2=O)c(OC)c1,13.1
21,Cc1c(C(=O)N2CCCCC2)nnn1-c1nonc1N,-3.81
22,CCN(CC)CCNc1nc(-c2ccccc2)nnc1C(F)(F)F,-37.1

row,SMILES,"hERG current change (%, negative = inhibition) at 10uM [%]"
1,Cc1ccc(CSCC(=O)N/N=C/c2ccc(OCC(=O)Nc3ccc(C)cc3)cc2)cc1,5.5
2,CNC(=O)C1C2C=CC3(O2)C1C(=O)N(C1CC1)C3C(=O)NCc1ccc(OC)cc1 (stereo not shown),9.61
3,CCOC(=O)c1sc(N(Cc2ccccc2)C(=O)CN2C(=O)CN(C)C2=O)nc1C,-59
4,COc1ccc(C(=O)N[C@H]2CCCCNC2=O)cc1OC1CCN(C(C)C)CC1,15.3
5,COc1ccc(NC(=O)C(=O)NCC(=O)Nc2cc(OC)ccc2OC)cc1,3.44
6,Cc1cccc(-n2c(O)c(C=NCc3ccccn3)c3ccccc3c2=O)c1,-60.9
7,O=C(N[C@@H](Cc1ccccc1)C(=O)NC1CC1)c1ccc(Cl)cc1,1.83
8,COc1cc2c(cc1OC)/C(=C/C(=O)c1ccccc1F)NCC2,-31.7
9,O=C(Nc1c(F)cc(F)cc1Br)c1ccco1,0.86
10,CCOc1ccc(CCNC(=O)COn2nnc3ccc(S(=O)(=O)N4CCOCC4)cc32)cc1OCC,-8.41
11,Cc1cccc(Oc2c([N+](=O)[O-])c(=O)n(C)c3ccccc23)c1,-6.73
12,O=C(Cc1ccccc1)Nc1ccc(N2CCCC2)cc1,-5.37
13,C=CCS/C(N)=N\N=C\c1c(O)ccc2ccccc12,7.14
14,Cn1c(CO)cnc1SCC(=O)c1ccc(F)cc1,16.2
15,Cc1ccc(S(=O)(=O)N2CCCCC2)cc1C(=O)NCc1ccccn1,14.4
16,Cn1cccc1/C=C1\SC(=S)N(NC(=O)c2ccccc2O)C1=O,7.87
17,CCCOc1ccc(C2/C(=C(/O)c3ccc(F)cc3)C(=O)C(=O)N2CCCN(C)C)cc1 (stereo not shown),15.3
18,COc1cc(C2N(c3ccc(Cl)c(Cl)c3)C(=O)C3CCCN32)cc(OC)c1OC (stereo not shown),-4.29
19,COc1cccc(-c2csc(N3CCN(C(=S)Nc4ccccc4)CC3)n2)c1,-12.4
20,Cc1ccccc1OC(C)C(=O)Nc1ccc(S(=O)(=O)Nc2nccs2)cc1 (stereo not shown),-6.84
21,CC1CCc2c(sc3nc(C4CC4)nc(N4CCN(C(=O)c5ccco5)CC4)c23)C1 (stereo not shown),-19.2
22,COc1ccccc1NS(=O)(=O)c1cc(NC(=O)c2cccs2)ccc1N1CCCCC1,5.33

row,SMILES,"hERG current change (%, negative = inhibition) at 10uM [%]"
1,C[N+]1(C)[C@@H]2CC[C@H]1CC(OC(=O)[C@@H](CO)c1ccccc1)C2.[I-] (stereo partly shown),23.4
2,Cc1cc(=O)n2[nH]c(N)c(N=Nc3ccccc3F)c2n1,-1.94
3,Cc1nc2ccc(S(=O)(=O)NC(C(=O)Nc3nccs3)C(C)C)cc2s1 (stereo not shown),-0.0763
4,Cc1ccc(Oc2ccc(C=O)cn2)cc1,0.0363
5,COc1cccc(CN2C(=O)Nc3ccccc3C(=O)N2C(C)(C)C)c1,4.28
6,CN1CCN(C(=O)N(c2ccccc2)c2ccccc2)CC1.Cl,11.5
7,COc1cccc(CNc2ccc3[nH]c(=O)[nH]c3c2)c1OCc1ccc(F)cc1,2.63
8,N#CCCN(CCC#N)c1nncs1,-6.4
9,Cc1ccc2oc(=O)c3cc(C(=O)NCCN4CCc5ccccc5C4)sc3c2c1,-10.8
10,NC(=O)C1(N2CCCCC2)CCN(CC(=O)Nc2ccccc2-c2ccccc2)CC1,14.6
11,CC(C)(C)C1CCC(=O)N(CCOc2ccccc2)CC1 (stereo not shown),-18.5
12,CC(NC(=O)Oc1ccccc1)C(c1cccs1)N1CCOCC1 (stereo not shown),-7.42
13,Cc1ccc(NC(=O)CNc2cccc(C)c2C)c(C)c1,5.53
14,COC(=O)C1=C(c2ccc(F)cc2OCc2ccccc2)C[C@@H]2CC[C@H]1N2C(=O)NCC1CC1,-51.5
15,C[N+](C)(C)CCCCCCC(=O)/C=N/O.[I-],12.1
16,CCOc1ccc(CCNC(=O)c2cccs2)cc1OCC,6.69
17,CCCn1nc2cc(C(=O)NC3CCCc4ccccc43)ccc2c1OCC (stereo not shown),-8.93
18,Cc1ccc(-c2nnc(SC(C)C(=O)NCC3CCCO3)nc2-c2ccc(C)cc2)cc1 (stereo not shown),-36
19,Cc1onc(-c2c(Cl)cccc2Cl)c1COC(=O)c1ccc(Cl)cc1[N+](=O)[O-],16.1
20,CC(C)c1ccc(NC(=O)C2CC(=O)N=C(N)S2)cc1 (stereo not shown),4.8
21,CNC(=O)c1cc2cccc(OC)c2oc1=O,10.7
22,CC(NC(=O)Cc1ccccc1F)c1ccc(F)cc1 (stereo not shown),6.9

row,SMILES,"hERG current change (%, negative = inhibition) at 10uM [%]"
1,CCCc1nc2c(nnn2Cc2ccccc2F)c(=O)[nH]1,4.74
2,COc1ccc(N2CCN(C(=O)CSc3ncnc4c3cnn4-c3ccccc3C)CC2)cc1,10.8
3,CCOc1ccc(NS(=O)(=O)c2ccc(C(=O)NCC(C)(C)N3CCOCC3)cc2)cc1,-10.3
4,CC(C)CN1CCC(=O)N(CCSc2ccc(Br)cc2)CC1,-61.3
5,Cc1ccc(C)c(C(=O)COC(=O)CNS(=O)(=O)c2ccccc2)c1,6.9
6,COc1ccccc1CN(CC(=O)NCc1ccco1)C(=O)CNS(=O)(=O)c1ccc(C)cc1,-13.9
7,CN(CCc1ccccc1)Cc1c[nH]c2ccccc12.O=C(O)C(=O)O,-56.7
8,N#C/C(=C\c1ccc(N2CCOCC2)o1)C(=O)Nc1ccc(O)cc1,-1.18
9,Cc1cc2oc(C(=O)NCCc3ccc(S(N)(=O)=O)cc3)c(C)c2cc1C,29.1
10,Cc1nc(NC(=S)Nc2ccccc2)sc1C,11.9
11,COc1ccccc1N(C(=O)c1ccco1)C(C(=O)NC1CCCC1)c1cccs1 (stereo not shown),1.33
12,O=C(NCCC1=CCCCC1)C1CC(=O)N(C2CCCCCC2)C1 (stereo not shown),6.77
13,CCCNC(=O)N1CCC(n2nccc2NC(=O)CCOc2ccccc2)CC1,6.12
14,COc1ccccc1OCCNC(=O)c1c(-c2ccccc2Cl)noc1C,8.43
15,O=C(CN(Cc1ccccc1)S(=O)(=O)c1ccc2c(c1)OCCO2)Nc1ccc2c(c1)OCCO2,-7.83
16,COc1ccc([C@@H]2[C@@H]3C(=O)N(C(C)(C)C)C(=O)[C@@H]3[C@]3(C)C(=O)N(c4ccc(C)cc4)C(=O)N23)cc1,-13.9
17,CC(C)(C)N1C(=O)c2ccc(C(=O)Nc3ccc(O)cc3)cc2C1=O,2.05
18,CCOCCCNC(=O)CCCn1nc(C)n2c(cc3sccc32)c1=O,-9.92
19,CCOC(=O)c1nnn(-c2nonc2N)c1COc1ccc(F)cc1,-36.6
20,CC1(C)OC(=O)C(=CNc2ccccn2)C(=O)O1,-18.8
21,CC(C)(C)c1nc2scc(-c3ccc(Br)cc3)c2c(=O)o1,7.26
22,CC(C)(C)C(=O)Nc1ccc(C(=O)N/N=C/c2ccccc2OC(=O)c2ccc(Cl)cc2Cl)cc1,3.58
